# According to ChEMBL document CHEMBL4888484, “Replenishing the malaria drug discovery pipeline: Screening and hit evaluation of the MMV Hit Generation Library 1 (HGL1) against asexual blood stage Plasmodium falciparum ,using a nano luciferase reporter read-out” (2022):
# Among all 150,000 compounds or so, about 540 (0.36%) showed an effect of 50% or more. The list shows a part of the results.
# Test system: Plasmodium falciparum
# Experiment: Primary screen in NF54 nanoGlo assay, in single point, at 2uM, 72h; a lower Z score goes with more inhibition
# Type: functional, Erythrocyte
# Conditions: timepoint 72 hour
Compound,% Inhibition [%],Z score
COCCOCc1nc(C2CC2)nn1-c1cc(C)ccc1C,-3,0.42
CC(C)CNC(=O)c1[nH]cnc1C(=O)N[C@H]1CCCCNC1=O,14,-1.63
CCOc1cc(Cl)c(CN2C[C@@H]3CN(C)C[C@]3(C(=O)O)C2)cc1OCC,-9,1.24
CCN(C(=O)[C@@H]1CCCO1)c1ccccc1C,-15,2.88
CCOc1ccc(S(=O)(=O)N2CC(F)(F)C[C@H]2CN2CCc3ccccc3C2)cc1,0,0.02
CN(CC1CCCCC1O)C(=O)NCCc1ccsc1 (centres undefined),-17,2.56
CC(C)Oc1ncccc1C(=O)N1CC(=O)N(CC2CC2)C1,-17,1.55
C[C@H](Oc1ccccc1Br)C(=O)N(CCC#N)C1CC1,-1,0.15
Cc1c(CN2CC[C@H](CO)[C@H](NC(=O)c3ccccc3)C2)cnn1C,-6,0.78
CCS(=O)(=O)Nc1cc(-c2nnc(C(C)C)o2)sc1C,-10,1.58
Cc1nn(C)c(C)c1CC(=O)N(Cc1ccccn1)c1ccncc1,-8,1.19
N#Cc1cnc(N2CCNC(=O)C2)c(Cl)c1,-13,1.62
C[C@@H](CC1CC1)Nc1ccc2oc(CO)cc2c1,3,-0.36
C[C@H]1Cc2cc(S(=O)(=O)N(C)CC#N)cc(Cl)c2O1,-7,1.19
Fc1cccc(Cl)c1CN1CC(c2nc(C3CC3)no2)C1,4,-0.75
CN(C)c1cc(CNCc2ccc3c(c2)CCO3)ccn1,-12,1.62
Cc1[nH]c2ncnc(N[C@@H](C)c3cccnc3)c2c1C,0,-0.04
Cc1cc2c(N3CCN(c4ccc(C5CC5)nn4)CC3)nccn2n1,10,-1.27
O=C(NCCC1=CCCCC1)c1nnc(-c2ccc3c(c2)OCO3)o1,-9,1.65
COc1ccc([C@@H]2CCC(=O)N2CCN2CCOCC2)cc1,-3,0.42
Cc1nccn1CCN(C)CCc1ccccn1,-5,0.84
Cc1ncn(CC2CCN(c3nc4ccc(F)cc4o3)CC2)c(=O)c1C,-12,1.69

Compound,% Inhibition [%],Z score
COc1ccc(-c2n[nH]cc2CN(C)[C@H]2CCc3nn(C)c(=O)n3CC2)cc1OC,10,-1.8
CCCCCNC(=O)N1CCN(C(C)(C)C(N)=O)CC1,-6,1.06
C[C@@H](C#N)N1CCN(CCN(C)Cc2ccccc2)CC1,-12,1.48
O=C(Nc1ccccc1)Nc1nnc[nH]1,39,-5.57
CCOc1ccccc1[C@H]1N(c2ccc(OC)cc2)C(=O)[C@@H]2CCCN21,-12,1.54
O=S(=O)(Nc1cccc(C(F)(F)F)n1)c1cccnc1,-2,0.22
CCN(CC(=O)c1ccco1)C1CCCCC1,16,-2.17
O=C(NCCCC(=O)N1Cc2ccccc2C1)Nc1nncs1,-19,1.75
Cc1cc(C(=O)NCc2ccnc(-c3ccsc3)c2)n(C)n1,-3,0.43
CC(=O)N1CCC[C@H](C(=O)N2CCN(c3cnccn3)CC2)C1,-5,0.86
FC(F)n1ccnc1CNC1(c2cccc(C(F)(F)F)c2)CCC1,4,-0.67
O=C(O)c1ccc(CNCc2csc(COc3ccc(Cl)cc3)n2)cc1,4,-0.54
CNc1nc2c(c(C(=O)N3CCCC3)n1)CN(c1ncccc1Cl)CC2,-21,2.06
CCc1cnc(C)nc1N[C@H]1COC[C@@H]1N1CCOCC1,9,-1.76
COC1CC(NC(=O)N2CCC3(c4ccccc4)C(C2)C3(F)F)C12CCC2 (centres undefined),-2,0.32
C[C@H]1C(=O)N2C[C@@H](N(C)C)C[C@H]2CN1Cc1ccc(Br)o1,-3,0.49
CC(C)(C)C(=O)Nc1sc2c(c1C(=O)Nc1cccc3ccccc13)CCCC2,12,-1.93
O=C(NC[C@@H](c1ccc(C(F)(F)F)cc1)N1CCOCC1)C1CCC1,-6,0.64
O=C(N[C@H](CO)Cc1ccccc1)c1cc(O)ccc1C(F)(F)F,7,-0.84
O=C1NCCN(C(=O)c2csc(-c3cccs3)n2)[C@H]1Cc1c[nH]cn1,-14,1.77
C[C@@H](C(=O)N1CCc2ccccc21)N1CCn2ccnc2C1,-10,2.17
C#C[C@H](C)N(C)Cc1cc(OC)cc(OC)c1,-10,1.32

Compound,% Inhibition [%],Z score
CCN(CCO)C(=O)N[C@@H](C)c1cn(C(C)(C)C)nc1C,0,0.04
N#Cc1cc2c(nc1N[C@H]1CCCc3cn(C4CCCC4)nc31)CCC2,6,-1.1
CC(C)N(Cc1ccc(N(C)C)cc1)C(=O)N[C@@H](C)c1ccccn1,-13,1.18
Cn1cc(CCCNCc2ccc(C#N)cc2)cn1,-10,1.43
Cc1csc([C@H](C)NC(=O)c2cncn2C)n1,-2,0.34
CCc1noc(C)c1C(=O)Nc1nc(C)ns1,6,-0.87
CCN1CC[C@H](N(C)C(=O)c2cc(OC)no2)C1,-1,0.17
CC(C)(C)c1nn(Cc2ncc(Br)cc2Cl)c(O)c1CCC#N,-13,2.43
Cc1cccc(N2CCO[C@@H](CF)C2)n1,5,-0.46
CN1CCN(S(=O)(=O)N2CCC3(CCCC3)C2)CC1,-12,1.32
COc1ccc(OC)c2c1cc(C(=O)N1CCOCC1)n2C,-13,1.52
Cc1ccc(NC(=O)c2nnn(CC(=O)Nc3ccc4c(c3)OCO4)c2C)cc1F,32,-0.6
CN1CCCc2cc(C(=O)NC3CCCCC3)sc21,1,-0.14
O=C(c1nccc2cccnc12)N1CCC[C@@H]1Cn1ccnc1,-3,0.47
C[C@@H](C(=O)N1CCOCC1)N1CCN(Cc2cccnc2C(F)(F)F)CC1,-11,1.48
CC1CCCC(C)N(C(=O)Nc2cccnc2)C1 (centres undefined),-7,1.21
COc1cccc(CCn2ccnc2C(C)C)c1,-4,0.93
Cc1cc(C)c(S(=O)(=O)N(CC(=O)N2CCNCC2)C2CCCCCC2)cc1C,-10,1.05
O=C(Nc1cccc(S(=O)(=O)N2CCCCC2)c1)c1ccsc1,-33,3.85
C/C=C/CC(=O)N1CC(=O)N(c2cccc(OC)c2)C[C@@H]1Cc1ccccc1,4,-0.65
O=C(O)[C@@H]1Cc2c([nH]c3ccccc23)C(c2cccc(F)c2)N1 (some centres undefined),-16,1.96
C#CCCC1(CCC(=O)N2CCC3(CCCCC3)C2)N=N1,-12,1.53

Compound,% Inhibition [%],Z score
Cc1ccc(-c2nc([C@H]3CC(=O)N(c4cccc(O)c4)C3)n(CCO)n2)o1,-4,0.63
Cc1cnc2cc(C(=O)NC3CC4CC4C3)ccn12 (centres undefined),2,-0.29
CN(C)c1ccc(NC(=O)c2cccs2)cc1CN(CC1CC1)C(=O)CC(C)(C)C,9,-1.25
Cc1ccccc1NC(=O)c1nn(C)c2ccccc2c1=O,-14,1.84
O=C(Cc1nnc(O)c2ccccc12)NCCC(=O)NC1CCCC1,-8,1.12
O=S(=O)(c1ccccc1Cl)N1CCN(c2nc3nccc(-c4cc(Cl)ccc4Cl)n3n2)CC1,-12,2.02
Cc1ccc([C@H](CNC(=O)c2oc3cc(Br)ccc3c2C)N2CCC(C)CC2)o1,0,-0.05
CCC(C)C(=O)N1CC(O)CC1CO (centres undefined),0,0.04
Cc1noc(C)c1C(=O)N(C)Cc1cnn(C)c1,-9,1.67
O=C(c1nc2ccc(Cl)cn2c1CN1CC=C[C@@H]1CO)N1CCCCCCC1,-7,1.24
CC(C)[C@@H]1CN(C(=O)c2nn(C)c(=O)c3ccccc23)CCCN1CC1CC1,-9,1.67
COC[C@@H]1CN(c2cnccn2)C[C@H]1C(=O)NCCn1cccn1,-5,0.69
O=C(NCc1ncc[nH]1)C1(Cc2nc3ccccc3[nH]2)CCCC1,30,-0.47
Cc1ccc(C)c(CN2CC[C@@]3(CCCN(Cc4cccnc4)C3=O)C2)c1,-17,1.95
c1cncc(-c2n[nH]c(-c3cccc(Cn4cccn4)c3)n2)c1,-17,2.46
O=C(CN(Cc1cccs1)Cc1cccs1)N1CCNC1=O,-13,2.42
COC(=O)C[C@H](c1cccnc1)c1c(Cc2ccccc2)[nH][nH]c1=O,5,-0.63
NC(=O)C[C@H]1CCN(c2ccccc2S(=O)(=O)C(F)(F)F)C1,-3,0.59
C[C@@H](CC(=O)N1CCCc2ccccc21)c1ccccc1,-15,2.94
Cc1ccc(C)c(S(=O)(=O)NC(=O)c2ccc3c(c2)OCO3)c1,-6,1.18
CCN(CC)S(=O)(=O)c1cc(-c2nnc(C(=O)N3CCCCC3)o2)cs1,14,-1.63
